According to PMC4336329 (PLoS ONE, 2015):
About 14,000 (4.5%) of roughly 310,000 compounds showed an effect of 50% or more. The effect is printed as a negative number. The list shows a part of the results.
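Also: peak tail current of the secondary pulse compared with the same well before compound.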

The molecules below were run against human ether-à-go-go-related gene (hERG) potassium channel (human, UniProt Q12809) (assay: primary screen, population patch clamp on CHO cells stably expressing hERG).
Sequence of human ether-à-go-go-related gene (hERG) potassium channel (Q12809 whole entry, looked up): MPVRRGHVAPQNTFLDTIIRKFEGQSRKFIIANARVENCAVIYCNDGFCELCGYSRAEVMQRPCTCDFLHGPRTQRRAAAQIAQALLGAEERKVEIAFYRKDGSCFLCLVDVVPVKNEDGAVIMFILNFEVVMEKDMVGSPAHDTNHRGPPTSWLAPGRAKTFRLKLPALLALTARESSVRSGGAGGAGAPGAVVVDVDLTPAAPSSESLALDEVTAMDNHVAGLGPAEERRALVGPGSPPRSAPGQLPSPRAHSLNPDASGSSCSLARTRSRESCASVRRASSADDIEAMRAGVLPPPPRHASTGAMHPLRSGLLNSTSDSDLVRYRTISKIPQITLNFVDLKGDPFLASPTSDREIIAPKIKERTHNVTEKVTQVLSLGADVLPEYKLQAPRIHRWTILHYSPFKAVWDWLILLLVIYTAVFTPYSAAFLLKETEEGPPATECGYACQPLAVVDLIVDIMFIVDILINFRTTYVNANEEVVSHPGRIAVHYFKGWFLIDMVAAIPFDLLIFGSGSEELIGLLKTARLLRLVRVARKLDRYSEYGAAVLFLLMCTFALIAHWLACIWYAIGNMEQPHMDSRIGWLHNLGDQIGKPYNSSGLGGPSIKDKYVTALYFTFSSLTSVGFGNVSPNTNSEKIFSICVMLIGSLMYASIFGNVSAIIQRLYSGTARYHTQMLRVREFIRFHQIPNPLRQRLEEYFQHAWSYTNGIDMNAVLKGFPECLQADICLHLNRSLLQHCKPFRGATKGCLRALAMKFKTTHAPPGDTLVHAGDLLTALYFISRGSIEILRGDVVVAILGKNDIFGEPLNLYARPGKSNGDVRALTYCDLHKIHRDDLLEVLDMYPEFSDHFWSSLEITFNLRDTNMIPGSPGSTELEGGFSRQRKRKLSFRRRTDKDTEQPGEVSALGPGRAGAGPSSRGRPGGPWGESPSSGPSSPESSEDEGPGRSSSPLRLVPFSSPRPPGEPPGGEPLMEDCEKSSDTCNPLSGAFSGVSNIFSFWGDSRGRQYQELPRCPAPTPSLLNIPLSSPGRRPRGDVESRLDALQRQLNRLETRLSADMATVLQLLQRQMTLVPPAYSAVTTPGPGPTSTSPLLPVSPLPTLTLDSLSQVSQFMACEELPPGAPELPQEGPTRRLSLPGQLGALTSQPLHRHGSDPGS
`O=C(Nc1nc(-c2cccs2)cs1)c1ccc(Cl)s1` was tested, and the “hERG current change (%, negative = inhibition) at 10uM” value was -10.4%.
For `COc1ccc(N(CC(=O)NCCSCc2ccccc2C)S(=O)(=O)c2ccccc2)cc1`, the “hERG current change (%, negative = inhibition) at 10uM” value was -3.89%.
In the case of `CCOC(=O)c1cnn(-c2cc(C(C)(C)C)nc3c(-c4ccccc4)c(C)nn23)c1N`, the “hERG current change (%, negative = inhibition) at 10uM” value is reported as -4.61%.
With `COc1ccc(NC(=O)CN2C(=O)C(C)SC(C)C2=O)cc1` (centres unmarked) the “hERG current change (%, negative = inhibition) at 10uM” value was 2.09%.
`Cc1ccc(Cn2c(NS(=O)(=O)c3ccccc3)nc3ccccc32)cc1` was tested, and the “hERG current change (%, negative = inhibition) at 10uM” value was 21.3%.
With `COc1ccc(C2=NN(CN3C(=O)C(=O)c4ccccc43)C(c3ccc(C)cc3)C2)cc1` (centres unmarked) the “hERG current change (%, negative = inhibition) at 10uM” value was 8.68%.
In the case of `CCN(CC)S(=O)(=O)c1cc(NC(=O)COc2ccc(C#N)cc2OC)ccc1C`, the “hERG current change (%, negative = inhibition) at 10uM” value is reported as -38.1%.
With `COc1ccc(CC(=O)NC(=S)Nc2ccc(S(N)(=O)=O)cc2)cc1` the “hERG current change (%, negative = inhibition) at 10uM” value was -17.6%.
`NC(=S)N/N=C/c1coc2c(ccc3ccccc32)c1=O` was tested, and the “hERG current change (%, negative = inhibition) at 10uM” value was 19%.
`Cc1cc(C)c(C(=O)Nc2ccc(C)c(C)c2)c(CC(C)(C)C(=O)O)c1` was tested, and the “hERG current change (%, negative = inhibition) at 10uM” value was 21.1%.
With `CCOc1ccc(-c2nnc(NC(=O)CCCOc3cccc(C)c3)o2)cc1` the “hERG current change (%, negative = inhibition) at 10uM” value was 12.5%.
In the case of `COC(=O)C1C(c2ccccc2)C(C(=O)N2CCN(C)CC2)C1c1ccccc1` (centres unmarked), the “hERG current change (%, negative = inhibition) at 10uM” value is reported as 2.03%.
In the case of `O=c1c(-c2ccccc2)[n+]([O-])c2ccccc2n1O`, the “hERG current change (%, negative = inhibition) at 10uM” value is reported as -9.6%.
With `COc1ccc(CCn2c(C)cc(C(=O)CSc3nnnn3-c3ccccc3)c2C)cc1` the “hERG current change (%, negative = inhibition) at 10uM” value was 19.9%.
In the case of `O=C(N/N=C/c1cc(Br)c(O)c([N+](=O)[O-])c1)C(O)(c1ccccc1)c1ccccc1`, the “hERG current change (%, negative = inhibition) at 10uM” value is reported as 9.45%.
For `O=C(N/N=C/c1ccccn1)C(=O)N1CCCCCC1`, the “hERG current change (%, negative = inhibition) at 10uM” value was 15.4%.
`CC(C)CN1CCN(Cc2cc3ccccc3[nH]2)CC1CCO` (centres unmarked) was tested, and the “hERG current change (%, negative = inhibition) at 10uM” value was -8.69%.
For `CC(=O)Nc1cccc(NC(=O)CSc2nc(C3CC3)nc3ccccc23)c1`, the “hERG current change (%, negative = inhibition) at 10uM” value was 5.72%.
With `O=C(c1cc2c(=O)n3ccccc3nc2s1)N1CCN(Cc2ccc3c(c2)OCO3)CC1` the “hERG current change (%, negative = inhibition) at 10uM” value was -43.3%.
`COc1ccc(-n2c(SCC(=O)Nc3ccc(Br)cc3)nc(O)cc2=O)cc1` was tested, and the “hERG current change (%, negative = inhibition) at 10uM” value was 0.556%.
For `CCOC(=O)c1ccc(N2C(=O)Cc3ccccc3C2=O)cc1`, the “hERG current change (%, negative = inhibition) at 10uM” value was 20.9%.
For `CCOC(=O)c1oc2c(CN3CCN(C)CC3)c(O)ccc2c(=O)c1-c1ccc(Br)cc1`, the “hERG current change (%, negative = inhibition) at 10uM” value was 0.129%.
For `O=C(O)CSc1ncnc2c1oc1ccccc12`, the “hERG current change (%, negative = inhibition) at 10uM” value was 14.2%.
`CC1CCCCN1CC(=O)Nc1cc(S(=O)(=O)N2CCOCC2)ccc1N1CCCC1` (centres unmarked) was tested, and the “hERG current change (%, negative = inhibition) at 10uM” value was -8.37%.
For `Cc1ccc(C(=O)NNC(=O)CCCCC(=O)NNC(=O)c2ccc(C)cc2)cc1`, the “hERG current change (%, negative = inhibition) at 10uM” value was 11.1%.
In the case of `COC(=O)c1ccc(CSc2ccc3nnc(-c4ccc(OC)cc4)n3n2)o1`, the “hERG current change (%, negative = inhibition) at 10uM” value is reported as -44.2%.
In the case of `COc1ccc(OCC(=O)Nc2ccc(S(=O)(=O)N3CCOCC3)cc2)cc1`, the “hERG current change (%, negative = inhibition) at 10uM” value is reported as 4.13%.
`Cc1cc(F)ccc1S(=O)(=O)Nc1ccccc1C(=O)Nc1ccccc1N1CCOCC1` was tested, and the “hERG current change (%, negative = inhibition) at 10uM” value was -21.6%.
In the case of `CNc1ccccc1-c1nc2ccccc2n(C)c1=O`, the “hERG current change (%, negative = inhibition) at 10uM” value is reported as -12.3%.
In the case of `CN(Cc1cccnc1)C(=O)CCCc1c[nH]c2ccccc12`, the “hERG current change (%, negative = inhibition) at 10uM” value is reported as 18.1%.
In the case of `Cc1ccc(NC(=O)CN(C)C(=O)c2cc(-c3cccs3)nn2-c2ccccc2)cc1`, the “hERG current change (%, negative = inhibition) at 10uM” value is reported as -33.1%.
In the case of `O=C(Nc1ccc(S(=O)(=O)N2CCCC2)cc1)c1cc(F)c(F)cc1Cl`, the “hERG current change (%, negative = inhibition) at 10uM” value is reported as -10.7%.
For `CCOCc1[nH]c(=S)[nH]c(=O)c1Cc1ccc(OCC(C)C)cc1`, the “hERG current change (%, negative = inhibition) at 10uM” value was 14%.
In the case of `Cc1ccc(NC(=O)CN2C(=O)NC(C)(C3CC3)C2=O)cc1S(=O)(=O)N1CCCCC1` (centres unmarked), the “hERG current change (%, negative = inhibition) at 10uM” value is reported as -10.3%.
In the case of `COc1ccc(-n2c(SCC(=O)N3CCOCC3)nnc2C(C)N2CCCCC2)cc1` (centres unmarked), the “hERG current change (%, negative = inhibition) at 10uM” value is reported as 4.17%.
`O=C(CNC(=O)c1ccco1)NCC(c1ccco1)N1CCCCC1` (centres unmarked) was tested, and the “hERG current change (%, negative = inhibition) at 10uM” value was -1.48%.
For `CCN1C(=O)c2cccc3c(S(=O)(=O)N4CCCC4C(=O)O)ccc1c23` (centres unmarked), the “hERG current change (%, negative = inhibition) at 10uM” value was 13%.
`CN(C)/N=C/c1ccc(N2CCOCC2)cc1` was tested, and the “hERG current change (%, negative = inhibition) at 10uM” value was -1.35%.
`CC(=O)N1c2ccc(S(=O)(=O)N3CCCC(C(=O)N4CCCC(C)C4)C3)cc2CC1C` (centres unmarked) was tested, and the “hERG current change (%, negative = inhibition) at 10uM” value was 0.545%.
With `Cc1noc(C)c1CCC(=O)N1CCCC(CO)(Cc2ccccc2)C1` (centres unmarked) the “hERG current change (%, negative = inhibition) at 10uM” value was -7.79%.
In the case of `CCOc1ccc(C2Nc3ccccc3NC3=C2C(=O)CC(C)(C)C3)cc1OC` (centres unmarked), the “hERG current change (%, negative = inhibition) at 10uM” value is reported as 15.6%.
With `Cc1cc(C)n(CCCNC(=O)C2CCC(=O)N(CCc3ccc(Cl)cc3)C2)n1` (centres unmarked) the “hERG current change (%, negative = inhibition) at 10uM” value was -54.7%.
For `Cc1cccc(NC(=O)CSc2cn[nH]n2)c1`, the “hERG current change (%, negative = inhibition) at 10uM” value was 19.3%.
`CC(C)(C)NCC(O)Cn1cc(C=O)c2ccccc21` (centres unmarked) was tested, and the “hERG current change (%, negative = inhibition) at 10uM” value was 3.79%.
